# Screen size: about 310,000 compounds; about 14,000 (4.5%) showed an effect of 50% or more. The effect is printed as a negative number. Some of the results follow.
# Target: human ether-à-go-go-related gene (hERG) potassium channel (human, UniProt Q12809)
# Experiment: primary screen, population patch clamp on CHO cells stably expressing hERG
# 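Also: peak tail current of the secondary pulse compared with the same well before compound.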
# Chain of human ether-à-go-go-related gene (hERG) potassium channel (Q12809 whole entry, looked up): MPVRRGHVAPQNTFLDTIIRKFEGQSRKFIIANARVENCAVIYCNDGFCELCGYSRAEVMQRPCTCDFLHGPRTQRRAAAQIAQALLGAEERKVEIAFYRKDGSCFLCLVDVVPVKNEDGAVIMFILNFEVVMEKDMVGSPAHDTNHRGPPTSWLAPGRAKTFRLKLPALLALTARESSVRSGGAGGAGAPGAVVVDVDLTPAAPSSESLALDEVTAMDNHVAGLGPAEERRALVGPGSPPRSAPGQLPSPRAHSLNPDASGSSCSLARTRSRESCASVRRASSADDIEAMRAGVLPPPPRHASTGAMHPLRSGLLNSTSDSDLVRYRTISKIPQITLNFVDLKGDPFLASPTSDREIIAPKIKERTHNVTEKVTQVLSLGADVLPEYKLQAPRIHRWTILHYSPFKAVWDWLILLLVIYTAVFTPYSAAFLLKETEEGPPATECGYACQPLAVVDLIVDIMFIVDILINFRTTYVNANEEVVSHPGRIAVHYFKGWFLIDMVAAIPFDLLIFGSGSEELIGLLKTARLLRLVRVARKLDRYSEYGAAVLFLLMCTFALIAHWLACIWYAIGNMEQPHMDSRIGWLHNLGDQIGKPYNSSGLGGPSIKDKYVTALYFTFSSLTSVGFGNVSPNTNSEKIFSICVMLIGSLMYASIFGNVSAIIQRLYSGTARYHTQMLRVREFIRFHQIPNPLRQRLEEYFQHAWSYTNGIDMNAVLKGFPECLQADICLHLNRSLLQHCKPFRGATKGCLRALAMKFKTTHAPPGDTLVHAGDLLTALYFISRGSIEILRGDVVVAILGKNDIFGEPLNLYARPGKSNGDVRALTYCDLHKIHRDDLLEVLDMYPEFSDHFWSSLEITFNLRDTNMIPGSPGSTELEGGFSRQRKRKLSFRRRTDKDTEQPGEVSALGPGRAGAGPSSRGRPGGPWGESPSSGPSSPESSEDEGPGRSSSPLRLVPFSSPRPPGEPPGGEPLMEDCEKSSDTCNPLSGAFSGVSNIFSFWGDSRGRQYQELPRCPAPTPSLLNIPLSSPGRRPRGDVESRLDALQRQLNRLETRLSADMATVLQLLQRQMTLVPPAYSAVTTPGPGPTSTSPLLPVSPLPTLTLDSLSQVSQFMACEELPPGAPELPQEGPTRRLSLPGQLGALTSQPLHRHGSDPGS
row,SMILES,"hERG current change (%, negative = inhibition) at 10uM [%]"
1,CCN1C(=O)/C(=C\c2nc3ccccc3c(=O)n2CC)c2ccccc21,7.75
2,NC(=O)[C@H]1CC2(CC(c3cccc(NC(=O)COc4ccc(Cl)cc4)c3)=NO2)CN1C(=O)c1ccc(Cl)cc1 (stereo partly shown),-9.96
3,CCOC(=O)c1oc2ccccc2c1NC(=O)CCl,8.84
4,Cc1cccc(Oc2ccc(NC(=O)C3CC=CCC3C(=O)O)cc2)c1 (stereo not shown),6.95
5,O=C1CC(N(Cc2ccc3c(c2)OCO3)C(=O)Nc2ccc(F)cc2)C(=O)N1c1ccccc1 (stereo not shown),2.28
6,COc1ccccc1N1CCN(CC(=O)c2c(C)[nH]c3cc(C)ccc23)CC1,-31
7,O=C(COc1ccc2ccccc2c1)Nc1ccc(Cc2ccncc2)cc1,4.87
8,Cc1ccc(NC(=O)C2COc3ccccc3O2)cc1S(=O)(=O)N1CCOCC1 (stereo not shown),-34.2
9,CCc1ccc(CNC(=O)Cn2nc(-c3ccccc3)ccc2=O)cc1,-43.9
10,COc1ccc(CCNc2ncnc3nc[nH]c23)cc1OC,4.12
11,Cc1ccc(/C=C2\C(=O)ON=C2c2ccccc2)o1,29.1
12,C#CCOc1ccc(Cl)cc1/C=N/O,-3.19
13,CC(=O)Nc1ccc(NC(=O)C2CC(=O)N(Cc3ccccc3)C2)cc1 (stereo not shown),17
14,COc1ccccc1NC(=O)Nc1ccc2c(c1)nc(C)n2C,-0.807
15,O=c1c(Cl)c(NCc2ccccc2)cnn1C12CC3CC(CC(C3)C1)C2,-24
16,CN(C)S(=O)(=O)n1cc(/C=C(\NC(=O)c2ccccc2)C(=O)N2CCOCC2)c2ccccc21,21.2
17,COc1cc2[nH]c(=O)n3nc(-c4ccccc4)nc3c2cc1OC,-11.7
18,COc1ccc(CCNC(=O)c2ccc(COc3ccccc3OC)o2)cc1,-8.72
19,CCC(=O)Nc1ccc(NC(=O)c2ccc3c(c2)OCO3)cc1,0.362
20,Cc1ccc([N+](=O)[O-])c(C(=O)Nc2cccnc2Cl)c1,9.75
21,Cc1cc(=O)n(-c2ccccc2Cl)[nH]1,9.54
22,C=CCn1c(O)c(C(C)=NC(C)c2ccccc2)c(=O)[nH]c1=O (stereo not shown),-3.54
23,CCCOC(=S)NC(=O)c1sc2ccccc2c1Cl,12.3

row,SMILES,"hERG current change (%, negative = inhibition) at 10uM [%]"
1,CCCCOc1ccc2c(C)cc(=O)oc2c1OCCCC,3.03
2,CCN=C1SC(C(=O)Nc2ccc(OCC)cc2)CC(=O)N1CC (stereo not shown),10.6
3,CCOc1c(CNCCCSc2nc(C)cc(C)n2)cccc1OC.Cl,-11.1
4,COC(=O)c1ccc(NC(=O)CN2C(=O)CNC2=O)cc1,14
5,COc1cc(OC)c(NC2=NCCCCC2)cc1Cl,-0.664
6,Cc1ccccc1C(=O)NC(=S)Nc1ccc(S(=O)(=O)N2CCN(C)CC2)cc1,7.75
7,CCc1cc2c(SCC(=O)c3ccc(Cl)s3)ncnc2s1,-5.89
8,Cc1cc(C)nc(Sc2nc(Nc3ccccc3)nc(Sc3nc(C)cc(C)n3)n2)n1,-4.94
9,COc1ccccc1-c1noc(CCCC(=O)NC2CCCC2)n1,9.49
10,CCOc1ccc2[nH]c3c(N4CCC5(CC4)OCCO5)ncnc3c2c1,5.84
11,Cc1ccc(C)c(NC(=O)COc2coc(CN3CCc4ccccc4C3)cc2=O)c1,-26.5
12,CC(Sc1nnc2c(n1)C1CCC2(C)C1(C)C)C(=O)Nc1ccccc1 (stereo not shown),-15
13,C=CCOc1c(CNC2CCCC2)cc(Cl)cc1OC.Cl,-23.6
14,Cc1ccc(S(=O)(=O)Nc2ccccc2C(=O)Nc2ccc(S(=O)(=O)Nc3nccc(C)n3)cc2)cc1,7.59
15,CCN(CC)c1ccc(/C=N/NC(=S)NCc2ccc(OC)cc2)cc1,20.3
16,CCN(CC)c1ncnnc1-c1ccccc1,15.9
17,Cc1ccccc1NCN1C(=O)C2CCC(C)(C1=O)C2(C)C (stereo not shown),-0.978
18,Cc1ccc(S(=O)(=O)NCCC(=O)OCC(=O)N2CCCC2=O)cc1C,-2.15
19,O=C1OC(c2ccccc2)=N/C1=C\C=C\c1ccco1,20.6
20,c1nc(COc2nsnc2N2CCOCC2)cs1,-4.15
21,S=c1[nH]nc(-c2cccs2)n1/N=C/c1cccs1,19.4
22,O=C(N[C@@H](Cc1ccccc1)C(=O)O)c1ccncc1.O=C(O)C(F)(F)F,8.25
23,COc1ccc(C(C)(C)C)cc1NC(=O)c1cc(S(=O)(=O)N(C)C)ccc1N1CCCC1,-60

row,SMILES,"hERG current change (%, negative = inhibition) at 10uM [%]"
1,Nc1nnnn1/N=C/c1cc(Cl)ccc1O,14.5
2,Cc1c(Cl)cccc1NC(=O)c1ccco1,13.5
3,COc1ccc(CCNC(=O)CCn2c(SCC#N)nc3ccccc3c2=O)cc1OC,4.34
4,Cc1ccc(SCCN2CCC(C(C)(C)C)CCC2=O)cc1 (stereo not shown),-15.6
5,Cc1c(-c2nc3ccccc3[nH]2)cnn1C,25
6,CCOc1cc(C(C(=O)NCC2CCCO2)N(C(=O)Cn2nnc3ccccc32)c2ccccc2C)ccc1O (stereo not shown),24.6
7,CCOC(=O)C(C)Sc1nnc2c3ccccc3n(C)c2n1 (stereo not shown),-9.97
8,O=C(NC1CC1)c1ccc(Cl)c(S(=O)(=O)N2CCOCC2)c1,-0.929
9,O=C(CCCn1c(=S)[nH]c2cc3c(cc2c1=O)OCO3)N1CCc2ccccc2C1,0.586
10,Cc1cccc(/C=C/c2onc(C)c2S(=O)(=O)N2CCC(C(=O)NC(C)C)CC2)c1,-11.3
11,COc1cc(C2C(C#N)=C(N)Oc3c2c(-c2ccccc2)nn3-c2ccccc2)cc(OC)c1OC (stereo not shown),-65
12,O=C1NN(c2ccc(F)c(Cl)c2)C(=O)/C1=C\c1cccc(OC(=O)c2cccs2)c1,4.41
13,CN1CCN(NC(=O)/C=C/c2cccc(Cl)c2)CC1,-6.09
14,CCCCN(C(=O)C1CCCC1)c1c(N)n(CC(C)C)c(=O)[nH]c1=O,5.99
15,CCCCc1nc(NCc2ccccc2)c(C#N)c2c1COC(C)(C)C2,12.9
16,Cc1nn(CC(=O)N(C)C)c(=O)c2ccccc12,17.2
17,Cc1ccc(CNC(=O)CCS(=O)(=O)c2ccc3c(c2)NC(=O)C(C)S3)cc1 (stereo not shown),9.44
18,COc1ccc(-c2cc(-c3ccc(Cl)cc3)n[nH]2)c(O)c1,32.6
19,c1ccc2c(c1)Cc1cc3ccccc3nc1-2,7.29
20,C=CCNC(=O)c1ccc2c(=O)n(CCCN3CCCC3=O)c(=S)[nH]c2c1,-3.76
21,COc1ccc(/C=C2/C(=O)C(C)(C(C)C)CCC2C)cc1 (stereo not shown),24.5
22,COc1ccc2c(c1OC)C(=O)N1N=C(c3ccc(F)cc3)CC21 (stereo not shown),-26.2
23,OC(CN1CCc2ccccc2C1)c1ccccc1 (stereo not shown),-9.09

row,SMILES,"hERG current change (%, negative = inhibition) at 10uM [%]"
1,COc1ccc2c(CC#N)c[nH]c2c1,12.1
2,CCOC(=O)c1ccc2c(c1)N(CC#N)C(=O)C(C)(C)O2,-4.65
3,Nc1ccc2nc(-c3ccccc3)cnc2c1,2.1
4,Cc1cccc(NC(=O)c2ccc(OCc3c(C)noc3C)cc2)n1,-16
5,Cc1ccc(NC(=S)N2CCCN(Cc3ccc(F)cc3)C2)c(C)c1,-31.1
6,COc1cc(C2C3=C(Nc4nc(N)[nH]c(=O)c42)c2ccccc2C3=O)ccc1O (stereo not shown),10.6
7,COC(=O)C(C)N(C(=O)c1cccc2ccccc12)c1c(C)cccc1C (stereo not shown),-20.2
8,Cc1ccc(C(c2sc3ncnn3c2O)N2CCC(C)CC2)cc1 (stereo not shown),-4.02
9,CCOc1cc(/C=C2/NC(=O)N(CC(=O)OC)C2=O)ccc1OC,7.19
10,COCc1cc(=O)[nH]c2cc(NC(=O)C(C)(C)CCl)c(C)cc12,16.4
11,Cc1cccc(/N=C/c2sc3ccccc3c2O)n1,3.11
12,CCOC(=O)C1CCN(C(=O)CSc2ccccc2)CC1,-20.3
13,COc1ccc(-n2nnc3c(SCC(=O)c4ccccc4)ncnc32)cc1,6.54
14,Cc1c(NC(=O)C(C)N2CC(C)OC(C)C2)c(=O)n(-c2ccccc2)n1C (stereo not shown),9.21
15,COCCCNC(=O)CN(Cc1ccccc1)S(=O)(=O)c1ccccc1,-0.593
16,CSc1nc2n(n1)C(c1cccs1)C1=C(CCCC1=O)N2 (stereo not shown),4.33
17,COCCCNCCOCCOc1ccc(C)cc1[N+](=O)[O-].O=C(O)C(=O)O,-26.8
18,Cc1nc2cnccc2n1C,17.2
19,CCOC(=O)N1CCN(Cc2nc3cc(NC(=O)CC)ccc3n2CC)CC1,9.4
20,Cc1cc(SCC(=O)OCC(=O)N(CCC#N)c2ccccc2)nc2ccccc12,-28.6
21,CN(C(=O)COc1cc(=O)n(C)c2ccccc12)c1ccc(Cl)cc1,-29.2
22,CCOC(=O)c1sc2nc(CN3CCCCC3)nc(Cl)c2c1C,3.31

# Source: publication PMC4336329 (PLoS ONE, 2015)
